The RNAGym collection of RNA variant scans (doi:10.7554/elife.90254)
The source gives no read counts; variants with many changes may rest on few reads.

B1: OR4K15 (parent)
chain: GUUAACGGUCAUAGGCCAUGGAAACUAGGAGCACCAUUUCGCUGCCAGUGAAGAAAUGAACAAAGAAAAUCUGGGCCAGGCAGGCAUCAAAAGAAAUAGUCUUGCGCUCAACCAGAAAGUCUGUAAUCAUUUUAAGGGUA

Variants of: B1
Test: self-cleavage, relative activity (ratio to wild type); higher = more cleavage; in vitro, sequencing; the parent is a self-cleaving ribozyme

Row | Variant | self-cleavage
1 | GUUAACGGUCGUAGGCCAUGGAAACUAGGAGCACCAUUUCGCUGCCAGUGAAGAAAUGAACAAAGAAAAUCUGGGCCAGGCAGGCACCAAAAGAAAUAGUCUUGCGCUCAGCCAGAAAGUCUGUAAUCAUUUUAAGGGUA [A11G U87C A111G] | 0.04
2 | GUUAACGGUCGUAGGCCAUGGAAACUAGGAGCACCAUUUCGCUGCCAGCGAAGAAAUGAACCAAGAAAAUCUGGGCCAGGCAGGCAUCAAAAGAAAUAGUCCUGCGCUCAACCAGAAAGUCUGUAAUCAUUAUAAGGGUA [A11G U49C A62C U102C U132A] | 1.26
3 | GUUAACGGUCGUAGGCCAUGGAAACUAGGAGCACCAUUUCGCUGCCAGCGAAGAAAUGAACAGGGAAAAUCUGGGCCAGGCAGGCAUCAAAAGAAAUAGUCUUGCGCCCAACCAGAAAGUCUGUAAUCAUUUUAAGGGUA [A11G U49C A63G A64G U108C] | 0.01
4 | GUUAACGGUCGUAGGCCAUGGAAACUAGGAGCACCAUUUCGCUGCCAGUGAAGAAAUGAACAAAGAAAAUCUGGGCCAGGCAGGCAUCAAAAGAAAUAGUCUUGCGCACAACCAGAGAGUCUGUAAUCAUUUUAAGGGUA [A11G U108A A117G] | 0
5 | GUUAACGGUCUUAGGCCAUGGGAACUAGGAGCACCAUUUCGCUGCCAGCGAAGAAACGAACAAAGAAAAUCUGGGCCAGGCAGGCAUCAAAAGAAAUAGUCUUGCGCUCAACCAGAAAGUCUGUAAUCAUUUUAAGGGUA [A11U A22G U49C U57C] | 1.1
6 | GUUAACGGUCGUAGGCCAUGGAAACUAGGAGCACCAUUUCGCCGCCAGUGAAGAAAUGAACGAAGAAAAUCUGGGCCAGGCAGGCAUCAAAAGAAAUAGUCUUGCGCUCAACCAGAAAGUCUGUAAUCAUUUUAAGGGUA [A11G U43C A62G] | 1.31
7 | GUUAACGGUCGUAGGCCAUGGAAACUAGGAGCACCAUUUCGCUGCCAGUGAAGAAAGGAACAAAGAAAAUCUGGGCCAGGCAGGCAUCAAAAGAAACAGUCUUGCGCUCAACCAGAGAGUCUGUAAUCAUUUUAAGGGCA [A11G U57G U97C A117G U139C] | 0.95
8 | GUUAACGGUCGUAGGCCAUGGAAACUAGGAGCACCAUUUCGCCGCCAGUGAAGAAAUGAACAAAGAAAAUCUGGGCCAGGCAGGCAUCAAAAGAAAUAGUAUUGCGCUCAACCAGAAAGUCUGUAAUCAUUUUAAGGGUA [A11G U43C C101A] | 0.09
9 | GUUAACGGUCGUAGGCCAUGGAAACUAGGAGCACCAUUUCGCUGCCAGUGAAGAAAUGAACAAAGAAAAUCGGGGCCAGGCAGGCAUCAAAAGAAAUAGUCUUGCGCUCAGCCAGAGAGUCUGUAAUCAUUUUAAGGGUA [A11G U72G A111G A117G] | 0.03
10 | GUUAACGGUCUUAGGCCUUGGAAACUAGGAACACCAUUUCGCUGCCAGUGAAGAAAUGAACAAAGAAAAUCUGGGCCAGGCUGGCGUCAAAAGAAAUAGUCUUGCGCUCAACCAGAAAGACUGUAAUCAUUUUAAGGGUA [A11U A18U G31A A82U A86G U120A] | 0.09
11 | GUUAACGGUCUUAGGCCAUGGCAACUAGGAGCACCAUUUCGCUGCCAGUGAAGAAAUGAGCAAAGAAAAUCUGGGCCAGGCAGGCAUCAAAAGAAAUAGUCUUGCGCUCAACCAGAAAGUCUGUAAUCAUUUUAAGGGUA [A11U A22C A60G] | 0.93
12 | GUUAACGGUCGUAGGCCAUGGAAACUAGGAGCACCAUUUCGCUGCCAGUGAAGAAAGGAACAAAGAAAAUCUGGGCCAGGCAGGCAUCAAAAGAAAUAGUCUUGGGCUCAACCAGAAAGUCUGUAAUCAUUUUAAGGGUA [A11G U57G C105G] | 0.09
13 | GUUAACGGUCGUAGGCCAUGGAAACUAGGAGCACCAUUCCGCUGCCAGCGAAGAAAUGAACAAAGAAAAUCUGGGCCAGGCAGGCAUCAAGAGAAAUAGUCUUGCGCUCAACCAGAAAGUCUGUAAUCAUUUUAUGGGUA [A11G U39C U49C A91G A135U] | 0.78
14 | GUUAACGGUCGUAGGCCAUGGAAACUAGGAGCACCAUUUCGCUGCCAGUGAAGAAACGAACAAAGAAAAUCUGGGCCAGGCAGGCAUCAAAAGAAAUAGUCUUGCGCUCAACCAGAAAGUCCGUAAUCAUUUUAAGAGUA [A11G U57C U122C G137A] | 0.98
15 | GUUAACGGUCUUAGGCCAUGGAGACUAGGAGCACCAUUUCGCUGCCAGUGAAGAAAUGAACAAAGAAAAUCUGGGCCAGGCAGGCAUCAAAAGAAUUAGUCUUGCGCUCAACCAGAAAGUCUGUAAUCAUUUUAAGGGUA [A11U A23G A96U] | 0.86
16 | GUUAACGGUCGUAGGCCAUGGAAACUAGGAGCACCAUUUCGCUGCCAGCGAAGAAAUGAACAAAGAAAAUCUGGGCCAGGCAGGCAUCAAAAGAAAUAGUCUUGCGCUCAACCAGAAAGUCUGUAAUCGUUUUAAGGGUA [A11G U49C A129G] | 0.9
17 | GUUAACGGUCGUAGGCCAUGGAAACUAGGAGCACCAUUUCGCCGCCAGUGAAGAAAUGAACAAAGAAAAUCUGGGCCAGGCAGGCAUCAAAAGAAAUAGUCUUGCGCUCAACCAGAAAGUCUGUAAUCAUUCUAAGGGUA [A11G U43C U132C] | 1.1
18 | GUUAACGGUCUUAGGCCAUGGAAGCUAGGAGCACCAUUUCGCUGCCAGUGUAGAAAUGAACAAAGAAAAUCUGGGCCAGGCAGGCAUCAAAAGGAAUAGUCUUGCGCUCAACCAGCAAGUCUGUAAUCAUUUUAAGGGUA [A11U A24G A51U A94G A116C] | 0.22
19 | GUUAACGGUCGUAGGCCAUGGAAACUAGGAGCACCAUUUCGCUGCCAGCGAAGAAAUGAACAAAGAAAAUCCGGGCCAGGCUGGCAUCAAAAGAAAUAGUCUUGCGCUCAACCAGAAGGUCUGUAAUCAUUUUAAGGGUA [A11G U49C U72C A82U A118G] | 0.05
20 | GUUAACGGUCUUAGGCCAUGGAGACUAGGAGCACCAUUUCGCUGCCAGUGAAGAAAUGAACAAAGAAAAUCUGGGCCAGGCAGGCAUCAAAAGAAAUAGUCUUGCGCUCAACCAGAAAGUCUGUAACCAUUUUAAGGGUA [A11U A23G U127C] | 0.61
21 | GUUAACGGUCGUAGGCCAUGGAAACUAGGAGCACCAUUUCGCUGCCAGCGAAGAAAUGAUCAAAGAAAAUCUGGGCCAGGCAGGCAUCAAAAGAAAUAGUCUUGCGCUCAACCAGAAAGUCUGUAAUCAUUUUAAGGGUA [A11G U49C A60U] | 0.7
